Laboratory results reported in the supplement of paper PMC4466236.
In all, about 33,000 sequences were measured (“E-score (dimensionless, -0.5 to 0.5)”: median about -0.058, highest 2% from about 0.35 on). The list shows a part of the results.

system: MvaT; test: PBM 8-mer E-score (mean of HK and ME arrays) (E-score (dimensionless, -0.5 to 0.5)); higher = stronger relative binding preference; most listed sequences are background and not binding sites
Method in brief: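 Full-length P. aeruginosa MvaT carrying an N-terminal glutathione S-transferase tag was tested by protein binding microarray following a previously described protocol. Two universal double-stranded 60-mer arrays, ME and HK, were used, each with a constant 25-mer primer region and a variable 35-mer region covering all 8-mers. The rank-based E-score is the mean of the two arrays, parsed with a custom script. Its range runs from -0.5 to 0.5 for each 8-mer.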

Sequence | PBM 8-mer E-score
AATTTCAG | 0.129
AATAACCG | 0.367
ATAACTTG | 0.38
TCCGTCAA | -0.111
ATTTACAA | 0.3
AGCCAAGG | -0.255
AAAACTTA | 0.386
CCTTGCCC | -0.283
AACCAGCC | 0.0115
AGATTCAC | -0.0072
ATCCAAAC | 0.0402
CGGCGCGC | -0.236
AGTTCCAC | -0.137
CAAAAAAA | 0.0674
CATCAGCG | -0.233
TATATGGA | 0.344
ACGTGTTC | -0.194
TACGCTAA | 0.171
CAATAACG | 0.169
AACCCCTC | -0.241
CCGTAGAC | -0.19
ACCTTCCT | -0.224

Sequence | PBM 8-mer E-score
CAGTTATA | 0.36
TAGTACCA | -0.031
CGCTCGGA | -0.241
CCAAGTGG | -0.123
GTATTGCA | 0.0858
TATATTCA | 0.373
TCTGTGAA | -0.05
CCCGATAA | 0.0712
TGAGAGAA | -0.118
AGACGGTC | -0.218
CACGTACG | -0.136
CCCTCTAA | -0.178
CAACTCGC | 0.0451
ATAGCGAA | 0.154
GTCACAGA | -0.0922
CTTGTCCA | -0.104
CAACAATC | 0.227
CGTCCGTA | -0.131
ACCTAGAT | 0.065
CTGTTTTA | 0.291
CAACATGC | 0.0285
CGAGTGGA | -0.244

Sequence | PBM 8-mer E-score
AAAAGGTC | -0.0913
GCACCGGA | -0.249
CCAATACC | 0.154
CTTATTTA | 0.391
TAGGCCGA | -0.0633
AGTTCTTG | 0.0918
CACTGCAC | 0.054
ATGGTAAA | 0.184
CGGAATAA | 0.34
AAGATCGT | 0.0076
CTTTTTAC | 0.187
CTCTTTTA | 0.244
AAAGATCC | 0.0242
AGGTTCCG | -0.212
CAGGGTCG | -0.317
CCCGGATC | -0.232
TGCACAAA | 0.0932
AGCCATAC | -0.0721
AATCCTCG | -0.157
AGTGTCTC | -0.00692
CCGTTTAA | 0.246
ACCAGTTA | 0.128

Sequence | PBM 8-mer E-score
CGCTGTCA | -0.157
GCTGCCAA | -0.0483
ATATGGCA | 0.104
CACCCACG | -0.143
GATGTTGC | 0.0251
ACAGACTC | -0.155
CACACAGG | -0.06
GTTCTTCA | 0.0611
GTGTGTGA | 0.0621
ATGGCAAC | -0.118
GAATGGTA | 0.105
AAATCGTA | 0.242
AGTGTCAG | 0.0404
ACTCCATC | -0.0437
AAGTTAGG | 0.28
ACTCGTCA | -0.0773
CTTAGGGA | -0.206
CCCCAACG | -0.245
CGAGTAAC | 0.103
ACGTGCAT | 0.055
CTAGCACA | -0.0407
TTCGACAA | 0.124

Sequence | PBM 8-mer E-score
ACTTCCCC | -0.0927
CAGCACAC | -0.145
ACAACAAG | 0.138
GGACCCTA | -0.35
GCTGCGGA | -0.269
GTGTATCA | 0.0684
CGCCGCCG | -0.158
ATCCAAAG | 0.0454
AAGGGGGG | -0.344
ACTAGGGC | -0.0678
CAATCGTA | -0.0723
CACAGCGC | -0.214
GTCCTAAC | 0.0874
AAAATACG | 0.184
CAATTTCA | 0.274
CGGTCTAG | -0.106
GGAGGGCA | -0.309
TACTGGAA | 0.0858
ATGGATGC | -0.0685
CAGTACTG | 0.178
ATTAACCG | 0.133
